According to PubChem BioAssay AID1240 (Sanford-Burnham Center for Chemical Genomics, 2008):
The campaign covered roughly 50,000 compounds. About 800 (1.6%) showed an effect of 50% or more. The list shows a part of the results.

biological target: Bcl-2-like protein 10 (Homo sapiens) (UniProt Q9HD36); assay: TR3 peptide-Bcl-B binding displacers, biochemical primary FP assay, phenotype converters (AID 1240); settings: GST-Bcl-B / FITC-TR3 peptide fluorescence polarization; stronger effect = higher value; compound at 3.75 mg/L;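 also: 0% = Bcl-B with tracer peptide and DMSO and 100% = tracer peptide lacking Bcl-B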
UniProt Q9HD36, sequence (Q9HD36 whole entry, looked up): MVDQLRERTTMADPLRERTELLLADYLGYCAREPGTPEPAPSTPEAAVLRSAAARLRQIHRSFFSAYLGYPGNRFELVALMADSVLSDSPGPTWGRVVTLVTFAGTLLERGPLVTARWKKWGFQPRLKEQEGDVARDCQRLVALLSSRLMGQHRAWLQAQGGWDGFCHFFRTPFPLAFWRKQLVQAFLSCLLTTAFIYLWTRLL

SMILES | displacement
O=C1NC(=S)N/C1=C/c1cc2c(cc1Cl)OCO2 | 8.2%
Cc1ccc(C(C)C)c(OCc2nnc(NC(=O)Nc3ccc(Cl)cc3)s2)c1 | 5.5%
O=C(O)COc1ccccc1/C=N/N1CCN(C(c2ccccc2)c2ccccc2)CC1 | -9.4%
Cc1nc2cc(-c3cccc(Cl)c3)[nH]n2c(=O)c1C | 3.4%
COc1ccc(CN=Cc2c(O)n(-c3cc(OC)ccc3OC)c(=O)[nH]c2=O)cc1 | -0.3%
COc1ccc(OC)c(-n2c(O)c(C=Nc3ccccc3C)c(=O)[nH]c2=O)c1 | 4.2%
Cc1ccc(NC(=O)c2ccccc2[N+](=O)[O-])cc1 | 8.3%
O=C(/C=C/c1ccc(F)cc1)N1CCN(CCN2C(=O)c3cccc4cccc(c34)C2=O)CC1 | 8%
CCOC(=O)/C(C#N)=C1/N(C)c2ccccc2N1N | 1.4%
Cc1ccccc1OCC(=O)Nc1ccccc1-c1ccccc1 | -7.8%
CCC(CO)Nc1cc(Cl)ccc1[N+](=O)[O-] (centres undefined) | 12.1%
O=C1C(C=NCCN2CCN(C(=S)Nc3ccccc3)CC2)=C(O)c2ccccc21 | -3.4%
COc1nc(-c2ccccc2)cc(-c2ccc(OC)c(OC)c2)n1 | -5.1%
COc1ccc2c(c1OC)C(=O)OC2Nc1ccc(I)cc1 (centres undefined) | -0.2%
NC(=O)C1CCN(C(=O)COc2ccccc2Cl)CC1 | -0.3%
Cc1ccc(N2C(=O)/C(=C/c3ccc(C(=O)O)cc3)SC2=S)cc1C | 11.8%
O=C(NCCc1cccc(Cl)c1)c1ccccc1Cl | -6.7%
CCCc1noc(-c2ccc(C(C)(C)C)cc2)n1 | 14.8%
CCOC(=O)c1c(-c2ccccc2)oc2ccc(O)c(CN3CCCC(C)C3)c12 (centres undefined) | 11%
O=S(NCc1ccco1)C12CC3CC(CC(C3)C1)C2 (centres undefined) | -8.4%
O=C(COc1ccc([N+](=O)[O-])cc1)NNC(=O)c1ccccc1Cl | 11.6%
O=c1cc(O)nc(SCc2ccc(Cl)cc2)[nH]1 | 8.1%
O=C1c2ccccc2C(=O)c2c1cccc2N1CCN(C/C=C/c2ccccc2)CC1 | 17.5%
C=CCc1ccccc1OCCOc1ccc(/C=C2/SC(=S)N(C)C2=O)cc1 | 11.4%
O=C(c1ccc2ccccc2c1)N1CCCC1 | -5.7%
CCOC(=O)c1c(-c2ccccc2)oc2cc(Br)c(OC(=O)c3ccco3)cc12 | 8.8%
Nc1nnc(COc2ccccc2)s1 | 0.6%

SMILES | displacement
O=C(Nc1ccc(-c2nc3ncccc3o2)cc1)c1ccc(-c2ccc(Cl)cc2Cl)o1 | 28.3%
CCN(CC)S(=O)(=O)/N=C/c1ccc(Cl)c(Cl)c1 | 3%
Cc1ccc2oc(-c3cc(NC(=O)/C=C/c4ccccc4)ccc3O)nc2c1 | 10.6%
CN1C(=O)C(c2ccccc2)C(=O)c2ccccc21 (centres undefined) | -5.3%
CC(=O)N1CCN(c2ccc(NC(=O)c3cccs3)cc2)CC1 | 4.3%
COc1cc(/C=C2/C=C(c3ccc(C(C)(C)C)cc3)OC2=O)c([N+](=O)[O-])cc1OC | -49.6%
COc1cc(-c2ccc(NC(=O)c3ccc(Cl)cc3Cl)c(OC)c2)ccc1NC(=O)c1ccc(Cl)cc1Cl | 12.4%
Cc1cc(Cl)ccc1OCCCC(=O)N1CCN(c2cccc(C)c2C)CC1 | -8.6%
CC(=O)CC(=O)Nc1ccc(Cl)cn1 | 0.3%
CS(=O)(=O)N(CC(=O)N(Cc1ccccc1)Cc1ccccc1)c1ccc(Cl)cc1 | 10.6%
COC(=O)c1c(N)c(C#N)c(C)n1Cc1ccccc1 | -4.7%
O=C1CCCc2c1[nH]c1c(Br)cccc21 | -10.1%
CCOc1ccc(/C=N/N2CCN(Cc3ccccc3Cl)CC2)cc1OC | 11.2%
COc1cccc(C(=O)OCC(=O)c2ccc(Cl)cc2)c1 | -1%
COc1cc2c(cc1C)/C(=N\OC(=O)c1cc(OC)c(OC)c(OC)c1)CCC2 | 14.3%
COc1ccc(-c2nocc2C#N)cc1OC | 7.2%
COC(=O)C(C)N(C(=O)c1ccc(Cl)cc1)c1c(C)cccc1C (centres undefined) | 16.4%
CC(NC(=O)c1cc2n(n1)C(C(F)(F)F)CC(c1ccc(Br)cc1)N2)c1ccccc1 (centres undefined) | -1.8%
Cc1ccc(SCC(=O)Nc2cccc(Br)c2)cc1 | 17.6%
Cc1cc(C)c(N2C(=O)c3ccc(C(=O)Nc4ccccc4C(=O)O)cc3C2=O)c(C)c1 | 3.3%
COc1cc(C(=S)N2CCOCC2)cc(Br)c1O | -12.3%
Cc1cc(C)nc(NC(=O)c2cccc(F)c2)c1 | -4.5%
Cc1ccc(-c2[nH]n3c(=O)c4c(nc3c2C)CCC4)cc1 | 60.8%
O=C(CSc1nnc(-c2ccccc2)c(-c2ccccc2)n1)N1CCOCC1 | -6%
Cc1cc(OCC(=O)Nc2ccc(Cc3ccncc3)cc2)ccc1Cl | 0.4%
O=[N+]([O-])c1ccc(-c2nnc(-c3ccccc3)c(-c3ccccc3)n2)cc1 | 12.1%
COc1ccc(C(=O)N2CCN(Cc3ccccc3)CC2)c(OC)c1 | -8.9%
